Binding data for eight molecules are collected here from PMC9317961, “Deafness-related protein PDZD7 forms complex with the C-terminal tail of FCHSD2” (Biochemical Journal, 2022).

No constants are given. Whether binding was seen depends on the method and setting. For some of these results: Binding seen in cells or lysates may run through a third protein. Some entries that bind do so weakly or less than the wild type. For some of these results: Sequences can lack the tags named with a protein.

One assay has as its target T1, PDZD7 PDZ3 H920A (mouse) (UniProt E9Q9W7).
T1 sequence: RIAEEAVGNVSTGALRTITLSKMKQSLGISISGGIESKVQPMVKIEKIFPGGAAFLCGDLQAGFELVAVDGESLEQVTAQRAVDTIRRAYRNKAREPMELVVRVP
Put plainly: condition: ~500 μM in the syringe, ~50 μM in the cell; ITC; MicroCal iTC200, 25°C; ~500 μM protein in the syringe titrated into ~50 μM partner in the cell; one-site binding model; both purified.

For assay [1], the target named is T2, Whirlin NPDZ12 (a.a. 33-377, including NTD, PDZ1, and PDZ2) (UniProt Q9P202).
T2 sequence: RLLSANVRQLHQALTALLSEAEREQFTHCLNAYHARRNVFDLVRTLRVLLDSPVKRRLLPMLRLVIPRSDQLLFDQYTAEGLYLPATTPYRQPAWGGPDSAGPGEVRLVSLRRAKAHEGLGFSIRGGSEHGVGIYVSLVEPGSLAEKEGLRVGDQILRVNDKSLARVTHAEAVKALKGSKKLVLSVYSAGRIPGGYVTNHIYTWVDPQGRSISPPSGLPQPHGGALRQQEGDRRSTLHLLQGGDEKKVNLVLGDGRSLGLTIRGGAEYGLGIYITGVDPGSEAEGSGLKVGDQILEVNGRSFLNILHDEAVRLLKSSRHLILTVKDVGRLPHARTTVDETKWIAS
Described as above.

In assay [2] the target is T3, Whirlin PDZ3 (a.a. 816-907) (UniProt Q9P202).
T3 sequence: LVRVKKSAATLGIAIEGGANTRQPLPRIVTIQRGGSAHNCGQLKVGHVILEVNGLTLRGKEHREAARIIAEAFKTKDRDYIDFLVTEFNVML
The assay is described as above.

The target in assay [3] is T4, PDZD7 PDZ2 (a.a. 202-319) (mouse) (UniProt E9Q9W7).
T4 sequence: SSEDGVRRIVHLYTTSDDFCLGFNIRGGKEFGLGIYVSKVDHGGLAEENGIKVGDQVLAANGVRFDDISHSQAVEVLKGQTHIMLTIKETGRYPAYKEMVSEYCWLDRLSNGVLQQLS
The assay is described as above.

For another assay, the target named is T5, PDZD7 PDZ3 R928A (mouse) (UniProt E9Q9W7).
T5 sequence: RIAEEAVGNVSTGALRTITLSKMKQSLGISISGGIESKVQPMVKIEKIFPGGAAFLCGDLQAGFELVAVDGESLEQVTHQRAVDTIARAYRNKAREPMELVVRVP
The assay is described as above.

Assay [4] concerns the target T6, PDZD7 PDZ1 (a.a. 81-167) (mouse) (UniProt E9Q9W7).
T6 sequence: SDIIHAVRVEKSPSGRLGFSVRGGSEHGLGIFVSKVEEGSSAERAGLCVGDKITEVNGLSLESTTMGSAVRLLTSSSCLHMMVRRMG
The assay is described as above.

For another assay, the target named is T7, Myc-PDZD7 (mouse) (UniProt E9Q9W7).
T7 sequence: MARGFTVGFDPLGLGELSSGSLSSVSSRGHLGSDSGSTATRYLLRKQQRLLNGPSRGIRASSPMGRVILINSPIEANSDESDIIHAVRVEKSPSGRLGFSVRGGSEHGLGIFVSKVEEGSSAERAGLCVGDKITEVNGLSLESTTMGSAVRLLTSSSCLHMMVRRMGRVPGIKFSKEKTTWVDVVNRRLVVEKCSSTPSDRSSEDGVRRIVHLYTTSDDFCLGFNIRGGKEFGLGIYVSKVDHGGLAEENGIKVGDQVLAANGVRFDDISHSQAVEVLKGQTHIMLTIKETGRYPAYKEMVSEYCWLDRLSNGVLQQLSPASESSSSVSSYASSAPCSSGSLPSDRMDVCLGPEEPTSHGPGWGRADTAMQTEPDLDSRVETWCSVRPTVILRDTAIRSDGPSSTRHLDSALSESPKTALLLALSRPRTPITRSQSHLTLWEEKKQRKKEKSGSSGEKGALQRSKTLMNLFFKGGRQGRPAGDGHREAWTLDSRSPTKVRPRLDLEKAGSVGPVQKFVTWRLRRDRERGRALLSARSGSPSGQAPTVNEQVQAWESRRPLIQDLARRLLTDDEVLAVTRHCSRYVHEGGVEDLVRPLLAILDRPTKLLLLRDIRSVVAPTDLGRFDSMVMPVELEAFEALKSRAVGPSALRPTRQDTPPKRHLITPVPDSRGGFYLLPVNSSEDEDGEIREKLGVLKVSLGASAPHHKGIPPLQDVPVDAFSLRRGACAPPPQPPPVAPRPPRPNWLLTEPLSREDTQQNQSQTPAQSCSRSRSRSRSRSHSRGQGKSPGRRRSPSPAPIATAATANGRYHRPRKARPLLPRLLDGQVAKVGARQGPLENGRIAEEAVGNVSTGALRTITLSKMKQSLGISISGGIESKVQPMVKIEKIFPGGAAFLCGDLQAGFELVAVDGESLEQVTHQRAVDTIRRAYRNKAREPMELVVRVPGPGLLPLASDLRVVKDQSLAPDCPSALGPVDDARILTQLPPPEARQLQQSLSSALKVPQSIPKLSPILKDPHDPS
Nature of the assay: co-IP; HEK293T cells transfected with EGFP- and Myc-fusion proteins; lysate (150 mM NaCl, 50 mM Tris pH 7.5, 1% Triton X-100) on immobilized anti-Myc antibody, 4°C, 2 h; blot with anti-Myc or anti-GFP.

In assay [5] the target is T8, PDZD7 PDZ3 (a.a. 842-946) (mouse, UniProt E9Q9W7 842-946).
T8 construct: As used in ITC; also called WT PDZD7 PDZ3; source: E. coli BL21 (DE3), purified (nickel-NTA, SEC); not shown: Trx (from the vector pET.32M.3C)
T8 sequence (looked up): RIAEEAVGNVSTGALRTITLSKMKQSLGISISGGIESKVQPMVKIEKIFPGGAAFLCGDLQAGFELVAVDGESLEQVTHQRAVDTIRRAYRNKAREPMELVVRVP
Nature of the assay: condition: ~500 μM in the syringe, ~50 μM in the cell; ITC; MicroCal iTC200, 25°C; ~500 μM protein in the syringe titrated into ~50 μM partner in the cell; one-site binding model; both purified.

The target of a further assay is T9, Myc-FCHSD2 (UniProt Q3USJ8).
T9 sequence: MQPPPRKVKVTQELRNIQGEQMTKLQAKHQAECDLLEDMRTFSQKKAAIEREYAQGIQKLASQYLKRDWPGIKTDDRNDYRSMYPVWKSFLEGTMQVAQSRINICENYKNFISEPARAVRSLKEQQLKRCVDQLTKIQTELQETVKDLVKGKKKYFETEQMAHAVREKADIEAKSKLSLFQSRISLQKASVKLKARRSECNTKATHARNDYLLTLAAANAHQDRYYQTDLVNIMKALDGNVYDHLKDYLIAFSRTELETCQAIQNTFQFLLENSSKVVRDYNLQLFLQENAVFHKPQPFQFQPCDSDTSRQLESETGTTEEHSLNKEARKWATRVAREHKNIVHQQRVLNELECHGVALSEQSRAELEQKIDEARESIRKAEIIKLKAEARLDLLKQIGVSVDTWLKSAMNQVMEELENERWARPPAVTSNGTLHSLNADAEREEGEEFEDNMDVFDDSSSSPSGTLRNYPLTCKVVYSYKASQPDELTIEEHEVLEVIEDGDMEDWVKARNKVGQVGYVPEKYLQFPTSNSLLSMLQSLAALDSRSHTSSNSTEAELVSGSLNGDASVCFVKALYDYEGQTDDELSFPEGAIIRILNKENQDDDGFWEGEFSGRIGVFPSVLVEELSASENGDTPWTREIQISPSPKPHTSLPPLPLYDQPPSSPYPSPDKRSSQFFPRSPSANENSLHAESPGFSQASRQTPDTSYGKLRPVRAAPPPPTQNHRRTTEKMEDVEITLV
Put plainly: co-IP; HEK293T cells transfected with EGFP- and Myc-fusion proteins; lysate (150 mM NaCl, 50 mM Tris pH 7.5, 1% Triton X-100) on immobilized anti-Myc antibody, 4°C, 2 h; blot with anti-Myc or anti-GFP.

Another assay concerns the target T10, Trx-tagged PDZD7 PDZ3 (mouse, UniProt E9Q9W7 842-946).
T10 construct: As used in SEC-MALS, thioredoxin tag kept; monomer by SEC-MALS; also called Trx-PDZD7 PDZ3; source: E. coli BL21 (DE3), purified (nickel-NTA, SEC)
T10 sequence (looked up): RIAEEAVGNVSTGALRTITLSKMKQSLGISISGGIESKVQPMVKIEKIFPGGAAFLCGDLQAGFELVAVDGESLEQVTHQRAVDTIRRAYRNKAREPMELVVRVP
Put plainly: SEC-MALS; Superose 12 10/300 GL column, miniDAWN and Optilab detectors; ~300 μl of 50 μM protein loaded; Trx-tagged proteins alone and mixed; both purified. (Size exclusion chromatography separates by hydrodynamic size, large species first.)

The target of a further assay is Trx-tagged FCHSD2 tail (UniProt Q3USJ8). The assay is described as above.

B1: FCHSD2 tail (a.a. 729-740) (peptide, UniProt Q3USJ8 729-740, looked up)
chain: TEKMEDVEITLV
notes: As used in ITC; also called WT FCHSD2 tail; source: E. coli BL21 (DE3), purified (nickel-NTA, SEC)
As for B1, the binding entry (in the assay with PDZD7 PDZ3 H920A (mouse); in assay [1]; in assay [2]; in assay [3]; in the assay with PDZD7 PDZ3 R928A (mouse); in assay [4]) was “no binding” throughout.

B2: GFP-FCHSD2 (protein, UniProt Q3USJ8 1-740)
chain: MQPPPRKVKVTQELRNIQGEQMTKLQAKHQAECDLLEDMRTFSQKKAAIEREYAQGIQKLASQYLKRDWPGIKTDDRNDYRSMYPVWKSFLEGTMQVAQSRINICENYKNFISEPARAVRSLKEQQLKRCVDQLTKIQTELQETVKDLVKGKKKYFETEQMAHAVREKADIEAKSKLSLFQSRISLQKASVKLKARRSECNTKATHARNDYLLTLAAANAHQDRYYQTDLVNIMKALDGNVYDHLKDYLIAFSRTELETCQAIQNTFQFLLENSSKVVRDYNLQLFLQENAVFHKPQPFQFQPCDSDTSRQLESETGTTEEHSLNKEARKWATRVAREHKNIVHQQRVLNELECHGVALSEQSRAELEQKIDEARESIRKAEIIKLKAEARLDLLKQIGVSVDTWLKSAMNQVMEELENERWARPPAVTSNGTLHSLNADAEREEGEEFEDNMDVFDDSSSSPSGTLRNYPLTCKVVYSYKASQPDELTIEEHEVLEVIEDGDMEDWVKARNKVGQVGYVPEKYLQFPTSNSLLSMLQSLAALDSRSHTSSNSTEAELVSGSLNGDASVCFVKALYDYEGQTDDELSFPEGAIIRILNKENQDDDGFWEGEFSGRIGVFPSVLVEELSASENGDTPWTREIQISPSPKPHTSLPPLPLYDQPPSSPYPSPDKRSSQFFPRSPSANENSLHAESPGFSQASRQTPDTSYGKLRPVRAAPPPPTQNHRRTTEKMEDVEITLV
Consider B2, for which, in the assay with Myc-PDZD7 (mouse), the binding result is given as “binds”.

B3: FCHSD2 tail V740R (peptide, UniProt Q3USJ8 729-740)
chain: TEKMEDVEITLR
In the case of B3, in assay [5], the binding result was “no binding”.

B4: FCHSD2 tail △PBM (peptide, UniProt Q3USJ8 729-736)
chain: TEKMEDVE
B4: the binding entry in assay [5] is given as “no binding”.

B5: GFP-PDZD7 PDZ3 (a.a. 842-946) (domain or fragment, UniProt E9Q9W7 842-946)
chain: RIAEEAVGNVSTGALRTITLSKMKQSLGISISGGIESKVQPMVKIEKIFPGGAAFLCGDLQAGFELVAVDGESLEQVTHQRAVDTIRRAYRNKAREPMELVVRVP
For the molecule B5, the binding result in the assay with Myc-FCHSD2 is on record as “binds”.

B6: Trx-tagged PDZD7 PDZ3 (domain or fragment, UniProt E9Q9W7 842-946)
chain: RIAEEAVGNVSTGALRTITLSKMKQSLGISISGGIESKVQPMVKIEKIFPGGAAFLCGDLQAGFELVAVDGESLEQVTHQRAVDTIRRAYRNKAREPMELVVRVP
Consider B6, for which the binding entry with Trx-tagged PDZD7 PDZ3 was “no binding (tested: 50 μM loaded)”.

B7: Trx-tagged FCHSD2 tail (peptide, UniProt Q3USJ8 729-740, looked up)
chain: TEKMEDVEITLV
notes: FCHSD2, residues 729-740; As used in SEC-MALS, thioredoxin tag kept; monomer by SEC-MALS; also called Trx-FCHSD2 tail; source: E. coli BL21 (DE3), purified (nickel-NTA, SEC)
For the molecule B7, the binding entry with Trx-tagged FCHSD2 tail is on record as “no binding (tested: 50 μM loaded)”.

B8: FCHSD2 tail T738A (peptide, UniProt Q3USJ8 729-740)
chain: TEKMEDVEIALV
For the molecule B8, the binding entry in assay [5] is listed as “no binding”.
